Assay results reported in the supplement of paper PMC10369915.
The other results are listed elsewhere or left out. Rule as the data show it: active = 3.2 or more and inactive = the rest. The signal is at background level for most entries.

Biological target: SHP2 C-SH2 domain E139D
Test: enrichment score (SH2-bound / input frequency) (ratio); bacterial display of known human phosphotyrosine sites (pTyr-Var adds point mutants) read by sequencing; higher = stronger binding; tyrosines were phosphorylated by kinases first
Conditions: peptide library: pTyr-Var
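Also: displayed peptides selected on beads carrying the immobilized SH2 domain, with library peptides lacking any tyrosine serving as negative controls.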

Enrichment score, inactive:
GANFEYIIAEK [ECHS1_Y35] 0.865
ISTAGYSFPEL [EDAR_Y406_I408F] 0.934
PLQHVYKIGGI [EEF1A2_Y254_D252H] 1.03
FGSVDYWEKFF [EEF1AKNMT_Y16] 1.2
VYPATYHPDHW [EFCAB12_Y544] 0.724
VYSATYHPDHW [EFCAB12_Y544_P541S] 1.31
VFSATYHPDHW [EFCAB12_Y544_P541S_YF] 1.12
RNEAFYDTFST [EFCAB3_Y372_S370A] 0.907
MDDDQYALLTA [EFCAB6_Y675_T680A] 0.635
STEEQYRICQV [EFHC1_Y115_R118C] 0.802
INITIYGKTFR [EFHC1_Y177] 1.33
KAEELYIGVTV [EFHC2_Y509] 0.676
KAEQLYIGVTV [EFHC2_Y509_E507Q] 1.07
MVTSGYKAKTI [EFR3A_Y447] 0.731
MVTSGYKAKMI [EFR3A_Y447_T451M] 0.712
RHRSGYVLIAM [EFR3A_Y73] 2.33
SSLMKYQQNVS [EGFEM1P_Y160_P157L] 0.969
IKGNMYFENSF [EGFR_Y112_R108K_YF] 1.02

Biological target: SHP2 C-SH2 domain wild-type
Test: as above
Conditions: peptide library: pTyr-Var

Enrichment score, inactive:
GANFEYIIAEK [ECHS1_Y35] 0.63
ISTAGYSFPEL [EDAR_Y406_I408F] 0.886
PLQHVYKIGGI [EEF1A2_Y254_D252H] 0.969
FGSVDYWEKFF [EEF1AKNMT_Y16] 1.11
VYPATYHPDHW [EFCAB12_Y544] 0.906
VYSATYHPDHW [EFCAB12_Y544_P541S] 1.16
VFSATYHPDHW [EFCAB12_Y544_P541S_YF] 0.868
RNEAFYDTFST [EFCAB3_Y372_S370A] 0.937
MDDDQYALLTA [EFCAB6_Y675_T680A] 0.53
STEEQYRICQV [EFHC1_Y115_R118C] 1.01
INITIYGKTFR [EFHC1_Y177] 1.6
KAEELYIGVTV [EFHC2_Y509] 1
KAEQLYIGVTV [EFHC2_Y509_E507Q] 1.3
MVTSGYKAKTI [EFR3A_Y447] 0.509
MVTSGYKAKMI [EFR3A_Y447_T451M] 0.728
RHRSGYVLIAM [EFR3A_Y73] 2.72
SSLMKYQQNVS [EGFEM1P_Y160_P157L] 0.795
IKGNMYFENSF [EGFR_Y112_R108K_YF] 0.916

Biological target: SHP2 N-SH2 domain L43F
Test: as above
Conditions: peptide library: pTyr-Var

Enrichment score, inactive:
GANFEYIIAEK [ECHS1_Y35] 0.425
ISTAGYSFPEL [EDAR_Y406_I408F] 0.908
PLQHVYKIGGI [EEF1A2_Y254_D252H] 0.675
FGSVDYWEKFF [EEF1AKNMT_Y16] 1.19
VYPATYHPDHW [EFCAB12_Y544] 0.8
VYSATYHPDHW [EFCAB12_Y544_P541S] 0.942
VFSATYHPDHW [EFCAB12_Y544_P541S_YF] 1.07
RNEAFYDTFST [EFCAB3_Y372_S370A] 0.815
MDDDQYALLTA [EFCAB6_Y675_T680A] 0.752
STEEQYRICQV [EFHC1_Y115_R118C] 0.761
INITIYGKTFR [EFHC1_Y177] 1.77
KAEELYIGVTV [EFHC2_Y509] 0.764
KAEQLYIGVTV [EFHC2_Y509_E507Q] 1.3
MVTSGYKAKTI [EFR3A_Y447] 0.555
MVTSGYKAKMI [EFR3A_Y447_T451M] 0.547
RHRSGYVLIAM [EFR3A_Y73] 2.65
SSLMKYQQNVS [EGFEM1P_Y160_P157L] 0.876
IKGNMYFENSF [EGFR_Y112_R108K_YF] 0.782

Biological target: SHP2 N-SH2 domain T42A
Test: as above
Conditions: peptide library: pTyr-Var

Enrichment score, inactive:
GANFEYIIAEK [ECHS1_Y35] 0.566
ISTAGYSFPEL [EDAR_Y406_I408F] 1.07
PLQHVYKIGGI [EEF1A2_Y254_D252H] 0.963
VYPATYHPDHW [EFCAB12_Y544] 0.723
VYSATYHPDHW [EFCAB12_Y544_P541S] 1.2
VFSATYHPDHW [EFCAB12_Y544_P541S_YF] 1.04
RNEAFYDTFST [EFCAB3_Y372_S370A] 0.731
MDDDQYALLTA [EFCAB6_Y675_T680A] 0.485
STEEQYRICQV [EFHC1_Y115_R118C] 0.864
INITIYGKTFR [EFHC1_Y177] 1.18
KAEELYIGVTV [EFHC2_Y509] 0.719
KAEQLYIGVTV [EFHC2_Y509_E507Q] 1.04
MVTSGYKAKTI [EFR3A_Y447] 0.514
MVTSGYKAKMI [EFR3A_Y447_T451M] 0.638
RHRSGYVLIAM [EFR3A_Y73] 2.05
SSLMKYQQNVS [EGFEM1P_Y160_P157L] 0.703
IKGNMYFENSF [EGFR_Y112_R108K_YF] 0.987

Enrichment score, active:
FGSVDYWEKFF [EEF1AKNMT_Y16] 3.22

Biological target: SHP2 N-SH2 domain T52S
Test: as above
Conditions: peptide library: pTyr-Var

Enrichment score, inactive:
GANFEYIIAEK [ECHS1_Y35] 0.895
ISTAGYSFPEL [EDAR_Y406_I408F] 0.882
PLQHVYKIGGI [EEF1A2_Y254_D252H] 0.951
FGSVDYWEKFF [EEF1AKNMT_Y16] 1.27
VYPATYHPDHW [EFCAB12_Y544] 0.999
VYSATYHPDHW [EFCAB12_Y544_P541S] 1.26
VFSATYHPDHW [EFCAB12_Y544_P541S_YF] 1.04
RNEAFYDTFST [EFCAB3_Y372_S370A] 0.829
MDDDQYALLTA [EFCAB6_Y675_T680A] 0.682
STEEQYRICQV [EFHC1_Y115_R118C] 0.781
INITIYGKTFR [EFHC1_Y177] 1.05
KAEELYIGVTV [EFHC2_Y509] 0.681
KAEQLYIGVTV [EFHC2_Y509_E507Q] 1.06
MVTSGYKAKTI [EFR3A_Y447] 0.703
MVTSGYKAKMI [EFR3A_Y447_T451M] 0.565
RHRSGYVLIAM [EFR3A_Y73] 2.41
SSLMKYQQNVS [EGFEM1P_Y160_P157L] 0.814
IKGNMYFENSF [EGFR_Y112_R108K_YF] 0.972

Biological target: SHP2 N-SH2 domain wild-type
Test: as above
Conditions: peptide library: pTyr-Var

Enrichment score, inactive:
GANFEYIIAEK [ECHS1_Y35] 0.63
ISTAGYSFPEL [EDAR_Y406_I408F] 1.06
PLQHVYKIGGI [EEF1A2_Y254_D252H] 1.61
FGSVDYWEKFF [EEF1AKNMT_Y16] 0.952
VYPATYHPDHW [EFCAB12_Y544] 0.881
VYSATYHPDHW [EFCAB12_Y544_P541S] 1.26
VFSATYHPDHW [EFCAB12_Y544_P541S_YF] 1.13
RNEAFYDTFST [EFCAB3_Y372_S370A] 0.765
MDDDQYALLTA [EFCAB6_Y675_T680A] 0.801
STEEQYRICQV [EFHC1_Y115_R118C] 1.26
INITIYGKTFR [EFHC1_Y177] 1.75
KAEELYIGVTV [EFHC2_Y509] 1.1
KAEQLYIGVTV [EFHC2_Y509_E507Q] 1.38
MVTSGYKAKTI [EFR3A_Y447] 0.837
MVTSGYKAKMI [EFR3A_Y447_T451M] 0.698
RHRSGYVLIAM [EFR3A_Y73] 2.39
SSLMKYQQNVS [EGFEM1P_Y160_P157L] 0.887
IKGNMYFENSF [EGFR_Y112_R108K_YF] 1.02
